# Measured values taken from the supplement of paper PMC3334620.
# Whole data set: some 33,000 sequences, median “E-score (-0.5 to 0.5)” near -0.017, cut for the highest 2% near 0.3. Some of the results follow.
# Biological target: T1, Sut1 (UniProt P53032)
# T1 sequence: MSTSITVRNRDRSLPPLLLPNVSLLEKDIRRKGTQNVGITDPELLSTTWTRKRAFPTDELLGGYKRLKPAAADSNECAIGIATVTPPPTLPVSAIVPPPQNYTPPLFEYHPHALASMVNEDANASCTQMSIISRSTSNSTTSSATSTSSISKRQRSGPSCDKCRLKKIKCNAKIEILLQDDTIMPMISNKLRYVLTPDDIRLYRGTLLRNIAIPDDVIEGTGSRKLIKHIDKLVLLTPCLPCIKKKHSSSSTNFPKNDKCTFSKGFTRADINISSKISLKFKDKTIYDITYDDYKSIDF
# Assay: PBM E-score (8-mer binding enrichment) (E-score (-0.5 to 0.5)); higher = stronger / more preferred TF binding; most listed sequences are background and not binding sites
# Conditions: protein concentration: 200 nM; construct: GST-full length
# How it was run: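 Universal all-10-mer Agilent arrays, double-stranded by primer extension on fresh or once-stripped slides, were probed with about 100-200 nM GST-tagged yeast transcription factors made by PURExpress. Fluorescent anti-GST detected bound protein, and masliner normalised the scans. E-scores from the Universal PBM Analysis Suite were given to each ungapped eight-base word pooled with its reverse complement.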
row,Sequence,PBM E-score
1,ACGGTATC,-0.0822
2,ATCGTGAA,0.168
3,CCGATAGA,-0.00095
4,CAACAACG,0.00201
5,CCTTTAGA,0.0635
6,TATCACGA,-0.0001
7,ATATAAGG,0.205
8,CCATCAGG,-0.325
9,ACAAACCT,-0.0104
10,AATTTCAA,0.215
11,GTAAGAAC,0.215
12,CTCGTAAC,-0.00465
13,GTATGCTA,-0.0844
14,CACCACAA,-0.108
15,CCGCTAGG,-0.00352
16,GTAATATA,0.281
17,AACCTTCT,-0.00228
18,CGGGCACG,-0.13
19,ACTGGGCA,-0.161
20,ACGTCGCA,-0.276
21,GCGCAATA,-0.0777
22,GGCACATA,-0.144
23,AGAAGGGC,-0.136
24,ATCAGGGG,-0.231
25,GTGTCCCA,-0.318

row,Sequence,PBM E-score
1,AGGTCGAG,-0.257
2,GGAGGCAA,-0.144
3,CAGCGAAC,0.0392
4,CACACACG,-0.0409
5,AGAGATAA,0.063
6,AACGCAGA,-0.00521
7,AGTTTTTC,0.236
8,CGTGGACC,-0.216
9,ATCGGCTG,0.0251
10,ATCGATTC,0.122
11,GGGCTGAA,-0.092
12,CGTTGCCA,-0.0882
13,GACGGTGA,-0.215
14,CCATTCGA,-0.195
15,CGTAGAGC,-0.295
16,CTTCCCAC,-0.0751
17,GCAACCAA,0.0756
18,TCAACGCA,0.0225
19,GACCCTCC,-0.0622
20,ATCGACGG,-0.0907
21,AGAACTAA,0.141
22,GGAACACC,0.0616
23,GGCTCTAC,-0.205
24,TAAGACAA,0.0479
25,AAGATGTA,0.0242

row,Sequence,PBM E-score
1,CTCCGAGC,0.437
2,CATAATTA,0.317
3,ACCCTAAT,-0.101
4,ACGGGTTC,-0.119
5,CGGATCAA,0.16
6,CCGCCGCA,-0.0598
7,CGTCCACA,-0.126
8,CCCGGATA,0.123
9,CTCTCATC,0.113
10,CATCGGGA,0.0182
11,GGCAAATA,0.0393
12,ACACCGAC,0.0125
13,ATGATTTA,0.222
14,GTCCCATA,-0.269
15,CAGGAGGG,-0.32
16,CGGACACC,0.00585
17,TAGTCTGA,-0.0642
18,GTCCGACA,0.366
19,GGGCGTTA,-0.0386
20,AGCGGAGC,0.137
21,CGAATTGC,0.118
22,AGGTACCG,-0.0244
23,GGACTATA,0.286
24,GAATCTGC,0.00471
25,TCGCGGAA,-0.0199

row,Sequence,PBM E-score
1,CCGACCGA,0.0287
2,GAGCCGCA,-0.125
3,CTACCCCC,-0.2
4,ATTAGCAC,0.0145
5,GGACTGCC,-0.0114
6,ATACGGAT,0.0822
7,ATCCGGCG,-0.00912
8,ACAGCGCA,-0.217
9,AGTTTACA,0.106
10,ATGTGAAT,0.0892
11,AGCTACAG,-0.213
12,AAATCCAT,0.102
13,CCAAGCGC,-0.107
14,CCTCCTTC,-0.156
15,AAAGAAGC,0.15
16,CCGACTCC,0.321
17,GGTAATCA,-0.126
18,TAAAAGGA,0.0609
19,CTTGCGTC,-0.165
20,GCGAATTA,0.23
21,AGAGAGAC,-0.144
22,GACGTGGA,-0.0991
23,AAGTAGCC,-0.175
24,AACATTTC,0.152
25,ACAATTGG,-0.142

row,Sequence,PBM E-score
1,GAGCTTGC,-0.242
2,CCCTTTTA,-0.127
3,CGGACTAG,0.452
4,GCCATACC,-0.234
5,TCGTCAGA,-0.2
6,GGCGAGGA,-0.214
7,GAGTTATA,0.2
8,AGGATAGG,-0.0118
9,GCGGCAAC,-0.143
10,ACATGCGA,-0.308
11,GCTATCCA,-0.00457
12,GCGAGAGA,-0.224
13,ATGTGGTA,-0.0495
14,CGTTAGAG,-0.0163
15,GAGGACAC,-0.0716
16,ACCTCCAC,0.0587
17,ACTGATCT,0.0362
18,ATCGGGTC,-0.0782
19,CAGCACTC,-0.0304
20,ATTCTTAA,-0.0164
21,CCGGGAAC,0.0019
22,CCCTTGCC,-0.304
23,CCACCGGC,0.0248
24,CATCGCCG,0.112
25,ACCCCTTC,-0.251

row,Sequence,PBM E-score
1,GCGACACC,0.00101
2,GATTTTGC,0.00508
3,CGTCTTTA,0.215
4,GATTTAAA,0.194
5,CGTCTTGC,-0.179
6,GCCCTTTA,-0.259
7,GCTTGTTA,0.109
8,ACCACCAT,-0.0419
9,AATAAGCT,0.111
10,GCTATAGC,-0.173
11,CCCCAGTC,-0.193
12,CAGCAATA,0.0212
13,AAGCTAGG,-0.0407
14,TACTTTAA,0.103
15,ACAAGGGG,-0.221
16,TTCACGAA,-0.125
17,ATGGCTTA,-0.09
18,ACCTATCG,0.092
19,GGCCGATA,-0.152
20,ATCAAGAT,0.158
21,AGGGCTTC,-0.139
22,GCCATTAC,-0.0938
23,CCAATATA,0.0675
24,CATTCCGG,0.194
25,CAGGCCCC,-0.367

row,Sequence,PBM E-score
1,AGCATAGG,-0.172
2,ACACTAGA,0.0902
3,CGGATATC,0.174
4,ATAGTCGA,0.0327
5,TCTATAAA,0.254
6,CCCATGCA,-0.116
7,ACAACTAT,0.0737
8,CATCTTAC,0.00084
9,ATTGATGA,0.18
10,CGGCCCAA,-0.116
11,CGGAACCA,0.221
12,TTAGTAAA,0.211
13,ACCGCGAG,-0.18
14,GACTAGCC,-0.0449
15,ACGATGGA,0.159
16,AAGTAGGC,-0.0115
17,AGATGCCG,-0.054
18,AGGGGATG,-0.276
19,ACAGAAGA,0.0645
20,GTACGCTA,-0.118
21,ACCCACAT,0.00107
22,CCACAAAG,0.0384
